Test results reported in ChEMBL document CHEMBL4888484, “Replenishing the malaria drug discovery pipeline: Screening and hit evaluation of the MMV Hit Generation Library 1 (HGL1) against asexual blood stage Plasmodium falciparum ,using a nano luciferase reporter read-out” (2022).
Hit rate of the full screen: of about 150,000 compounds, about 540 (0.36%) showed an effect of 50% or more. The list shows a part of the results.

Each compound was assayed on Plasmodium falciparum (assay: Primary screen in NF54 nanoGlo assay, in single point, at 2uM, 72h; a lower Z score goes with more inhibition). Details: timepoint 72 hour.
Format: functional, Erythrocyte
In the case of O=C(Nc1cccnc1)NC(C1CC1)C1CC1, the “% Inhibition” value is reported as -1% and the Z score is reported as 0.2. O=c1c2cc3c(=O)n(-c4ccncc4)c(=O)c3cc2c(=O)n1-c1ccncc1 was tested, and the “% Inhibition” value was -4% and the Z score was 0.52. For O=S(=O)(NCCn1ccn2nccc12)c1ccccc1, the “% Inhibition” value was -19% and the Z score was 2.4. In the case of CON(C)C[C@H](O)Cn1cc(NC(=O)Nc2cc(C)on2)cn1, the “% Inhibition” value is reported as -5% and the Z score is reported as 0.49. O=c1ccc(C(F)(F)F)cn1Cc1cncc(Br)c1 was tested, and the “% Inhibition” value was 0% and the Z score was 0.05. In the case of Clc1ccc(Cl)c(-c2ccc(CNn3cnnc3)o2)c1, the “% Inhibition” value is reported as 43% and the Z score is reported as -6.16. In the case of Cc1cc(-c2csc(NC(=O)c3ccccn3)n2)c(C)o1, the “% Inhibition” value is reported as 2% and the Z score is reported as -0.27. For O=C(Cc1ccc2c(c1)OCO2)N1CCC(=C2CC2)CC1, the “% Inhibition” value was 8% and the Z score was -0.89. With CCOC(=O)c1cc(C)nn1C1CCN(C(=O)COCc2ccccc2)CC1 the “% Inhibition” value was -7% and the Z score was 1.04. With COc1cccc(OC)c1C(=O)Nc1c(C(=O)N2CCCCCC2)oc2ccccc12 the “% Inhibition” value was -7% and the Z score was 0.68. COc1ccc(N(Cc2ccccc2)S(=O)(=O)c2cccc(C(=O)N(C)Cc3ccco3)c2)cc1 was tested, and the “% Inhibition” value was -18% and the Z score was 3.38. For C[C@@H](CNC(=O)Nc1nn(C)cc1C#N)c1nccs1, the “% Inhibition” value was 4% and the Z score was -0.42. In the case of COC(=O)c1cc(Cl)cc(C)c1NC(=O)c1cc2n(n1)CCCO2, the “% Inhibition” value is reported as -11% and the Z score is reported as 2.17. In the case of O=C(Nc1ccccc1F)[C@@H]1CCc2ccccc2N1, the “% Inhibition” value is reported as -7% and the Z score is reported as 1.12. With CCCN1CCN(C(=O)[C@@H]2CCCn3c(-c4ccccc4)cnc32)CC1 the “% Inhibition” value was -4% and the Z score was 0.58. With CCN(C)[C@@H](C)C(=O)N(C)Cc1cc(C)cc(C)n1 the “% Inhibition” value was -12% and the Z score was 1.59. COc1cc2c(N(C)C(=O)c3cccc(OC)c3OC)cccc2cc1OC(C)C was tested, and the “% Inhibition” value was -17% and the Z score was 2.03. With CCC(=O)Nc1nnc(-c2cc3cccc(OC)c3o2)o1 the “% Inhibition” value was -7% and the Z score was 1.25. For Fc1ccc(CN2CCc3nc(N4CCOCC4)nc(Oc4ccc(F)cc4F)c3C2)cc1, the “% Inhibition” value was -6% and the Z score was 0.71. With CC(C)CCN[C@@H](CC(=O)Nc1cccc(Cl)c1Cl)C(=O)O the “% Inhibition” value was -6% and the Z score was 1.04. With Cn1cnc2c(NCC3(n4cccn4)CC3)ncnc21 the “% Inhibition” value was -1% and the Z score was 0.16. For COc1cccc(N2CCN(S(=O)(=O)c3ccc4c(c3)CCN4C(=O)NC3CCCC3)CC2)c1, the “% Inhibition” value was -3% and the Z score was 0.37. In the case of COC[C@H]1CN(c2ncnc3c2ncn3-c2ccccc2)CCO1, the “% Inhibition” value is reported as -5% and the Z score is reported as 0.51. In the case of Nc1nc(CCc2nc3c([nH]2)C[C@H](c2ccc(F)cc2)CNC3=O)cs1, the “% Inhibition” value is reported as 0% and the Z score is reported as -0.01. With Cc1nc(C(C)NC(=O)N2CCCC(c3ccc(F)c(F)c3)C2)cs1 (centres undefined) the “% Inhibition” value was -3% and the Z score was 0.49. With CO[C@H]1CN(C(=O)NCCN2CCOCC2(C)C)C[C@H]1OC the “% Inhibition” value was -6% and the Z score was 0.91. In the case of O=C(Nc1cccc2c1COCC2)N1CCC2(C=Cc3ccccc3O2)CC1, the “% Inhibition” value is reported as -3% and the Z score is reported as 0.47. O=C(NCC1(C(=O)O)CCOCC1)c1cc(C2CC2)nc2ccccc12 was tested, and the “% Inhibition” value was -5% and the Z score was 0.62. For CCNc1ccnc(NCc2nc(-c3cccc(F)c3)c(-c3ccccn3)[nH]2)n1, the “% Inhibition” value was 38% and the Z score was -2.07. For CNS(=O)(=O)c1cccc(NCc2cc(COC)cs2)c1, the “% Inhibition” value was 3% and the Z score was -0.42. For Cc1onc(-c2ccccn2)c1C(=O)N1CC[C@H](c2ccccn2)C1, the “% Inhibition” value was -9% and the Z score was 1.07. CN(CC1CC1)C(=O)c1c(NC(=O)c2cccnc2)sc2c1CCCC2 was tested, and the “% Inhibition” value was -2% and the Z score was 0.31. In the case of CC(C)[C@H]1CN(C(=O)c2nc(C(F)(F)F)n3c2CCCC3)CCN1, the “% Inhibition” value is reported as -15% and the Z score is reported as 1.9. Cc1nnc(CN(C)C(=O)NCCC2CCCCCC2)o1 was tested, and the “% Inhibition” value was -2% and the Z score was 0.33. For Cc1ccc([C@@H](O)CNCc2cccc3nccn23)cc1, the “% Inhibition” value was 3% and the Z score was -0.6. With O=C(O)c1cc(O)cc(-c2cc(NCc3ccccn3)nc3[nH]ccc23)c1 the “% Inhibition” value was -8% and the Z score was 1.55. O=c1c(-c2cc(Br)ccc2NCc2ccccc2)nc2ccccc2n1Cc1ccccc1 was tested, and the “% Inhibition” value was 2% and the Z score was -0.32. In the case of C[C@@H](c1ccc2c(c1)CCC2)S(=O)(=O)Cc1cccc(C(N)=O)n1, the “% Inhibition” value is reported as -18% and the Z score is reported as 3.17. In the case of O=C1CC[C@@]2(CCCO2)CCN1Cc1ccccc1OC(F)(F)F, the “% Inhibition” value is reported as -2% and the Z score is reported as 0.28. For CCNc1ncc(C(=O)N(Cc2ccccn2)C2CCCCC2)cn1, the “% Inhibition” value was -12% and the Z score was 1.5. With O=C(NC[C@@H](c1ccco1)S(=O)(=O)c1ccccc1)C1CCCCC1 the “% Inhibition” value was -9% and the Z score was 1.62. CN(CCc1ccccn1)C(=O)c1cc2cc(Br)ccc2o1 was tested, and the “% Inhibition” value was -3% and the Z score was 0.44.
